{
  "source": "the supplement of paper PMC8728848",
  "binders": {"B1": {"name": "PX9961H-bth-557-24-557 (Bacteroides thetaiotaomicron) (protein)", "chain": "EETRTEVEKKNYMNNAEEAKDVLLGVYRTNTLDAMYGYYLSILFNLGTDISQVEGSGNENFRIIPTNSFPTTQSEVQQTWAALYTGIYRANDFLERISNKIGSYTTTDKKLATLYIAEARALRGMFYFELVRRFGNVVLMTSTQMSNQNPATYVQSAPEKVYEYIEDDLLYACDILPYATDDQYRESNDYRFSKGAALGLLTKVYATWAGYPVKDESKWEAAAKTARILVESGKHGLLKDYEQLWKNTCNGTWDPTESLIEISFYSPTVSGNSDPVGRIGKWNGVKTTAIAGVRGSCAANVKVVHTFVLDWREDVSDIRRDLSIANYQYTDTKKSLWVAGASDTDESAAEKDADPTKAQKNKQNYTPAKWDIQKYVTTNSFINNDKSNVNWYFLRYADVLLLYAEALNEWKHGPDAEAYNAINAVRRRGYGNPSNTSACDLPQGLDETSFREAVRKERSYELSFEGHRRQDLIRWGIYYKTVQATAKELGYWWEGTGSPNYSVATYTEEGKHELFPIPQRDMDLCIQFNQNPKW"}},
  "experiment_in_all_cases": "glycan array binding signal (z-score within array); higher = stronger binding",
  "conditions_in_all_cases": "glycan notation: IUPAC condensed, linker removed",
  "key": {"[1]": {"target": "Fuc(a1-3)[Gal3S(b1-4)]GlcNAc6S", "procedure,_shortened": "(§1)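 Glycan array data were curated from 3228 arrays in the Consortium for Functional Glycomics database and kept only where the protein sequence was available. Glycan names were converted to IUPAC-condensed notation, and columns mapping to the same glycan were averaged. The binding signal is a within-array Z-score, averaged across arrays of the same protein sequence at different concentrations or buffers and across linkers. Negative Z-scores can be read as non-binding.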"}, "[2]": {"target": "Fuc(a1-3)[GalNAc(b1-4)]GlcNAc", "procedure,_shortened": "as §1"}, "[3]": {"target": "Fuc(a1-3)[GalNAc(b1-4)]GlcNAc6S", "procedure,_shortened": "as §1"}, "Fuc(a1-4)GlcNAc": {"target": "Fuc(a1-4)GlcNAc", "procedure,_shortened": "as §1"}, "Fuc(b1-3)GlcNAc": {"target": "Fuc(b1-3)GlcNAc", "procedure,_shortened": "as §1"}, "Gal(a1-2)Gal": {"target": "Gal(a1-2)Gal", "procedure,_shortened": "as §1"}, "Gal(a1-3)Gal": {"target": "Gal(a1-3)Gal", "procedure,_shortened": "as §1"}, "Gal(a1-3)Gal(b1-3)GlcNAc": {"target": "Gal(a1-3)Gal(b1-3)GlcNAc", "procedure,_shortened": "as §1"}, "[4]": {"target": "Gal(a1-3)Gal(b1-3)GlcNAc(b1-2)Man", "procedure,_shortened": "as §1"}, "[5]": {"target": "Gal(a1-3)Gal(b1-3)GlcNAc(b1-2)Man(a1-3)[Gal(a1-3)Gal(b1-3)GlcNAc(b1-2)Man(a1-6)]Man(b1-4)GlcNAc(b1-4)GlcNAc", "procedure,_shortened": "as §1"}, "[6]": {"target": "Gal(a1-3)Gal(b1-3)GlcNAc(b1-3)GalNAc", "procedure,_shortened": "as §1"}, "[7]": {"target": "Gal(a1-3)Gal(b1-3)GlcNAc(b1-6)GalNAc", "procedure,_shortened": "as §1"}, "[8]": {"target": "Gal(a1-3)Gal(b1-3)[Fuc(a1-4)]GlcNAc(b1-2)Man(a1-3)[Gal(a1-3)Gal(b1-3)[Fuc(a1-4)]GlcNAc(b1-2)Man(a1-6)]Man(b1-4)GlcNAc(b1-4)GlcNAc", "procedure,_shortened": "as §1"}, "Gal(a1-3)Gal(b1-4)Glc": {"target": "Gal(a1-3)Gal(b1-4)Glc", "procedure,_shortened": "as §1"}, "Gal(a1-3)Gal(b1-4)GlcNAc": {"target": "Gal(a1-3)Gal(b1-4)GlcNAc", "procedure,_shortened": "as §1"}, "[9]": {"target": "Gal(a1-3)Gal(b1-4)GlcNAc(b1-2)Man", "procedure,_shortened": "as §1"}, "[10]": {"target": "Gal(a1-3)Gal(b1-4)GlcNAc(b1-2)Man(a1-3)[Gal(a1-3)Gal(b1-4)GlcNAc(b1-2)Man(a1-6)]Man(b1-4)GlcNAc(b1-4)GlcNAc", "procedure,_shortened": "as §1"}, "[11]": {"target": "Gal(a1-3)Gal(b1-4)GlcNAc(b1-3)GalNAc", "procedure,_shortened": "as §1"}, "[12]": {"target": "Gal(a1-3)Gal(b1-4)GlcNAc(b1-6)GalNAc", "procedure,_shortened": "as §1"}, "[13]": {"target": "Gal(a1-3)Gal(b1-4)[Fuc(a1-3)]GlcNAc", "procedure,_shortened": "as §1"}, "[14]": {"target": "Gal(a1-3)Gal(b1-4)[Fuc(a1-3)]GlcNAc(b1-2)Man(a1-3)[Gal(a1-3)Gal(b1-4)[Fuc(a1-3)]GlcNAc(b1-2)Man(a1-6)]Man(b1-4)GlcNAc(b1-4)GlcNAc", "procedure,_shortened": "as §1"}, "Gal(a1-3)GalNAc": {"target": "Gal(a1-3)GalNAc", "procedure,_shortened": "as §1"}, "[15]": {"target": "Gal(a1-3)[Gal(a1-4)]Gal(b1-4)GlcNAc", "procedure,_shortened": "as §1"}, "[16]": {"target": "Gal(a1-4)Gal(b1-3)GlcNAc(b1-2)Man(a1-3)[Gal(a1-4)Gal(b1-3)GlcNAc(b1-2)Man(a1-6)]Man(b1-4)GlcNAc(b1-4)GlcNAc", "procedure,_shortened": "as §1"}, "Gal(a1-4)Gal(b1-4)Glc": {"target": "Gal(a1-4)Gal(b1-4)Glc", "procedure,_shortened": "as §1"}, "Gal(a1-4)Gal(b1-4)GlcNAc": {"target": "Gal(a1-4)Gal(b1-4)GlcNAc", "procedure,_shortened": "as §1"}, "[17]": {"target": "Gal(a1-4)Gal(b1-4)GlcNAc(b1-2)Man(a1-3)[Gal(a1-4)Gal(b1-4)GlcNAc(b1-2)Man(a1-6)]Man(b1-4)GlcNAc(b1-4)GlcNAc", "procedure,_shortened": "as §1"}, "[18]": {"target": "Gal(a1-4)Gal(b1-4)GlcNAc(b1-3)Gal(b1-4)Glc", "procedure,_shortened": "as §1"}, "Gal(a1-4)GlcNAc": {"target": "Gal(a1-4)GlcNAc", "procedure,_shortened": "as §1"}, "Gal(a1-6)Glc": {"target": "Gal(a1-6)Glc", "procedure,_shortened": "as §1"}, "Gal(b1-2)Gal": {"target": "Gal(b1-2)Gal", "procedure,_shortened": "as §1"}, "Gal(b1-3)Gal": {"target": "Gal(b1-3)Gal", "procedure,_shortened": "as §1"}, "Gal(b1-3)Gal(b1-4)GlcNAc": {"target": "Gal(b1-3)Gal(b1-4)GlcNAc", "procedure,_shortened": "as §1"}, "Gal(b1-3)GalNAc": {"target": "Gal(b1-3)GalNAc", "procedure,_shortened": "as §1"}, "[19]": {"target": "Gal(b1-3)GalNAc(a1-3)[Fuc(a1-2)]Gal(b1-4)Glc", "procedure,_shortened": "as §1"}, "[20]": {"target": "Gal(b1-3)GalNAc(a1-3)[Fuc(a1-2)]Gal(b1-4)GlcNAc", "procedure,_shortened": "as §1"}, "Gal(b1-3)GalNAc(b1-3)Gal": {"target": "Gal(b1-3)GalNAc(b1-3)Gal", "procedure,_shortened": "as §1"}},
  "note": "This is one part of the list.",
  "data": [
    {"binder": "B1", "values": [
      {"measurement": "glycan array binding signal (z-score)", "setting": "[1]", "value": -0.195},
      {"measurement": "glycan array binding signal (z-score)", "setting": "[2]", "value": -0.173},
      {"measurement": "glycan array binding signal (z-score)", "setting": "[3]", "value": -0.329},
      {"measurement": "glycan array binding signal (z-score)", "setting": "Fuc(a1-4)GlcNAc", "value": -0.378},
      {"measurement": "glycan array binding signal (z-score)", "setting": "Fuc(b1-3)GlcNAc", "value": -0.208},
      {"measurement": "glycan array binding signal (z-score)", "setting": "Gal(a1-2)Gal", "value": -0.611},
      {"measurement": "glycan array binding signal (z-score)", "setting": "Gal(a1-3)Gal", "value": -0.305},
      {"measurement": "glycan array binding signal (z-score)", "setting": "Gal(a1-3)Gal(b1-3)GlcNAc", "value": -0.488},
      {"measurement": "glycan array binding signal (z-score)", "setting": "[4]", "value": -0.276},
      {"measurement": "glycan array binding signal (z-score)", "setting": "[5]", "value": 4.31},
      {"measurement": "glycan array binding signal (z-score)", "setting": "[6]", "value": -0.043},
      {"measurement": "glycan array binding signal (z-score)", "setting": "[7]", "value": -0.588},
      {"measurement": "glycan array binding signal (z-score)", "setting": "[8]", "value": -0.134},
      {"measurement": "glycan array binding signal (z-score)", "setting": "Gal(a1-3)Gal(b1-4)Glc", "value": -0.054},
      {"measurement": "glycan array binding signal (z-score)", "setting": "Gal(a1-3)Gal(b1-4)GlcNAc", "value": -0.077},
      {"measurement": "glycan array binding signal (z-score)", "setting": "[9]", "value": -0.357},
      {"measurement": "glycan array binding signal (z-score)", "setting": "[10]", "value": 0.856},
      {"measurement": "glycan array binding signal (z-score)", "setting": "[11]", "value": -0.394},
      {"measurement": "glycan array binding signal (z-score)", "setting": "[12]", "value": -0.311},
      {"measurement": "glycan array binding signal (z-score)", "setting": "[13]", "value": -0.309},
      {"measurement": "glycan array binding signal (z-score)", "setting": "[14]", "value": 2.12},
      {"measurement": "glycan array binding signal (z-score)", "setting": "Gal(a1-3)GalNAc", "value": -0.401},
      {"measurement": "glycan array binding signal (z-score)", "setting": "[15]", "value": 3.24},
      {"measurement": "glycan array binding signal (z-score)", "setting": "[16]", "value": 5.85},
      {"measurement": "glycan array binding signal (z-score)", "setting": "Gal(a1-4)Gal(b1-4)Glc", "value": -0.186},
      {"measurement": "glycan array binding signal (z-score)", "setting": "Gal(a1-4)Gal(b1-4)GlcNAc", "value": -0.381},
      {"measurement": "glycan array binding signal (z-score)", "setting": "[17]", "value": -0.37},
      {"measurement": "glycan array binding signal (z-score)", "setting": "[18]", "value": -0.107},
      {"measurement": "glycan array binding signal (z-score)", "setting": "Gal(a1-4)GlcNAc", "value": -0.493},
      {"measurement": "glycan array binding signal (z-score)", "setting": "Gal(a1-6)Glc", "value": -0.474},
      {"measurement": "glycan array binding signal (z-score)", "setting": "Gal(b1-2)Gal", "value": -0.499},
      {"measurement": "glycan array binding signal (z-score)", "setting": "Gal(b1-3)Gal", "value": -0.55},
      {"measurement": "glycan array binding signal (z-score)", "setting": "Gal(b1-3)Gal(b1-4)GlcNAc", "value": -0.213},
      {"measurement": "glycan array binding signal (z-score)", "setting": "Gal(b1-3)GalNAc", "value": -0.451},
      {"measurement": "glycan array binding signal (z-score)", "setting": "[19]", "value": -0.246},
      {"measurement": "glycan array binding signal (z-score)", "setting": "[20]", "value": -0.422},
      {"measurement": "glycan array binding signal (z-score)", "setting": "Gal(b1-3)GalNAc(b1-3)Gal", "value": -0.483}
    ]}
  ]
}
